# Measurements reported in the supplement of paper PMC12645437, “Orthogonal IMiD-Degron Pairs Induce Selective Protein Degradation in Cells” (ACS Chemical Biology, 2025).
# The other results are listed elsewhere or left out.
# Target: no compound (DMSO)
# Experiment: log2 fold change of degron read counts, EGFP-low vs EGFP+ sorted cells; higher = lower degron-EGFP level without compound (poor expression or instability)
# Conditions: compound: DMSO control; 18 h
# 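Also: jurkat cells carrying a lentiviral library of mutant zinc finger degrons fused to EGFP plus mCherry, mCherry+ cells FACS sorted, degron abundance counted by next-generation sequencing.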
row,Sequence,log2 fold change of degron read counts
1,FWCDQCGACFTQKGNLLRHIKL,-0.243
2,FDCDVCGAPFTQKGNLLRHIKL,-1.63
3,FECDVCGALFTQKGNLLRHIKL,-1.86
4,LGCNQCGFYCTQKGNLLRHIKL,1.93
5,FWCPVCGASFTQKGNLLRHIKL,0.633
6,FTCPICGRAFTQKGNLLRHIKL,-0.384
7,FGCEICGRWFTQKGNLLRHIKL,-0.39
8,FSCNQCGRSFTQKGNLLRHIKL,-0.503
9,FLCPICGRWFTQKGNLLRHIKL,1.16
10,FMCDQCGAHFTQKGNLLRHIKL,-1.49
11,FACPVCGANFTQKGNLLRHIKL,-0.705
12,FICNQCGHFFTQKGNLLRHIKL,0.245
13,FKCNQCGHHFTQKGNLLRHIKL,0.205
14,FICEICGHLFTQKGNLLRHIKL,-0.722
